According to the supplement of paper PMC9174493:
Some of the results follow. Single values of this set are uncertain. Values with irradiation are relative to irradiated vehicle.

The molecules below were run on A549-Dual (assay: ISRE reporter (Lucia luciferase) activity, viability-corrected, relative to vehicle (fold change vs vehicle); higher = more activation of STING-IRF / NF-kB immune response reporter). Details: 10 µM; irradiation: none.

SMILES	ISRE reporter
O=C1OC(C(O)CO)C(O)C1O.[NaH] (centres undefined) [Sodium ascorbate]	0.778
CCN1CCN(C(=O)NC(C(=O)NC2C(=O)N3C2SC(C)(C)C3C(=O)[O-])c2ccccc2)C(=O)C1=O.[Na+] (centres undefined) [Piperacillin Sodium]	0.998
O=c1cc(-c2ccc(O)c(O)c2)oc2cc(O)cc(O)c12 [Luteolin]	0.999
CCC(=O)OC1C(OC2C(C)C(OC3CC(C)(OC)C(O)C(C)O3)C(C)C(=O)OC(CC)C(C)(O)C(O)C(C)C(=O)C(C)CC2(C)O)OC(C)CC1N(C)C.CCCCCCCCCCCCOS(=O)(=O)O (centres undefined) [Erythromycin estolate]	0.855
CN1CCN2c3ccccc3Cc3ccccc3C2C1.Cl (centres undefined) [Mianserin HCl]	1.1
CCN(CC)CCNC(=O)c1cc(Cl)c(N)cc1OC.Cl [Metoclopramide HCl]	1.02
Cl.N=C(N)NC(=N)NCCc1ccccc1 [Phenformin HCl]	0.49
C=C1CCC(O)C/C1=C/C=C1\CCCC2(C)C1CCC2C(C)/C=C/C(C)C(C)C (centres undefined) [Vitamin D2]	0.642
CCN(CC)CCOc1ccc(/C(=C(\Cl)c2ccccc2)c2ccccc2)cc1.O=C(O)CC(O)(CC(=O)O)C(=O)O [Clomifene citrate]	1.18
C#CC1(O)CCC2C3CCc4cc(OC5CCCC5)ccc4C3CCC21C (centres undefined) [Quinestrol]	0.912
NCCC(O)C(=O)NC1CC(N)C(OC2OC(CN)C(O)C(O)C2O)C(O)C1OC1OC(CO)C(O)C(N)C1O.O (centres undefined) [Amikacin hydrate]	0.945
O=C1OC2(c3ccc(O)cc3Oc3cc(O)ccc32)c2ccccc21 [Fluorescein]	0.562
COc1cc(/C=C/C(=O)OC2CCC34CC35CCC3(C)C(C(C)CCC=C(C)C)CCC3(C)C5CCC4C2(C)C)ccc1O (centres undefined) [Gamma-Oryzanol]	0.844
NC1CONC1=O [L-Cycloserine]	0.95
CCN1CCN(c2cc3c(cc2F)c(=O)c(C(=O)O)cn3C2CC2)CC1 [Enrofloxacin]	0.888
OCC1OC(Oc2ccc(O)cc2)C(O)C(O)C1O (stereo not drawn) [alpha-Arbutin]	0.523
CS(=O)(=O)n1cc2c(n1)CN(C1COC(c3cc(F)ccc3F)C(N)C1)C2 (centres undefined) [Omarigliptin (MK-3102)]	1
COC1CC(OC2C(C)OC(OC3/C(C)=C/CC4CC(CC5(C=CC(C)C(C6CCCCC6)O5)O4)OC(=O)C4C=C(C)C(O)C5OC/C(=C\C=C\C3C)C45O)CC2OC)OC(C)C1O (centres undefined) [Doramectin]	7.06
CN(Cc1ccc(C(C)(C)C)cc1)Cc1cccc2ccccc12.Cl [Butenafine HCl]	0.654
COC(=O)NC(C(=O)N1CCCC1c1ncc(-c2ccc3c(c2)OC(c2ccccc2)n2c-3cc3cc(-c4cnc(C5CCCN5C(=O)C(NC(=O)OC)C(C)C)[nH]4)ccc32)[nH]1)C(C)C (centres undefined) [Elbasvir]	2.25

SMILES	ISRE reporter
CC1Cc2ccccc2N1NC(=O)c1ccc(Cl)c(S(N)(=O)=O)c1 (centres undefined) [Indapamide]	0.606
CCC1OC(=O)CC(O)C(C)C(OC2OC(C)C(OC3CC(C)(O)C(O)C(C)O3)C(N(C)C)C2O)C(CC=O)CC(C)C(=O)/C=C/C(C)=C/C1COC1OC(C)C(O)C(OC)C1OC (centres undefined) [Tylosin]	0.729
N[C@H](CO)C(=O)O [(R)-Serine]	1.11
O=C(CS(=O)Cc1ccco1)NC/C=C\COc1cc(CN2CCCCC2)ccn1 (centres undefined) [Lafutidine]	0.842
O=C[C@H](O)[C@H](O)[C@H](O)CO [D-Ribose]	0.534
NC(=O)c1cccnc1 [Nicotinamide (Vitamin B3)]	0.559
CC1(C(=O)O)CCC2(C)CCC3(C)C(=CC(=O)C4C5(C)CCC(OC6OC(C(=O)[O-])C(O)C(O)C6OC6OC(C(=O)[O-])C(O)C(O)C6O)C(C)(C)C5CCC43C)C2C1.[K+].[K+] (centres undefined) [Dipotassium glycyrrhizinate]	0.606
CCc1c(Cl)c(O)c(Cl)c(O)c1C(=O)OC1C(C)OC(OC/C2=C\C=C\CC(O)/C(C)=C\C(CC)C(OC3OC(C)(C)C(OC(=O)C(C)C)C(O)C3O)/C(C)=C/C(C)=C/CC(C(C)O)OC2=O)C(OC)C1O (stereo in doubt) [Fidaxomicin]	5.98
Cl.OC(CNCC(O)C1CCc2cc(F)ccc2O1)C1CCc2cc(F)ccc2O1 (centres undefined) [Nebivolol HCl]	0.983
O=C(Nc1ccccc1)c1ccccc1O [Salicylanilide]	0.481
COCCCOc1cc(CC(CC(N)C(O)CC(C(=O)NCC(C)(C)C(N)=O)C(C)C)C(C)C)ccc1OC (centres undefined) [Aliskiren]	0.521
CSc1ccc2c(c1)N(CCC1CCCCN1C)c1ccccc1S2.Cl (centres undefined) [Thioridazine hydrochloride]	1.62
CC(OCC1(c2ccccc2)CCC2(CCC(=O)N2)CN1)c1cc(C(F)(F)F)cc(C(F)(F)F)c1 (centres undefined) [Rolapitant]	0.479
Cc1ccc(S(=O)(=O)[N]([Na])Cl)cc1 [Chloramine-T]	0.681
CCN(CC)CCOC(=O)c1ccc(N)cc1 [Procaine]	0.699
CCCCOc1ccc(OCCCN2CCOCC2)cc1.Cl [Pramoxine HCl]	1.19
Cc1ccsc1/C=C/C1=NCCCN1C.O=C(O)C(O)C(O)C(=O)O [Morantel tartrate]	0.617
CC(N)C12CC3CC(CC(C3)C1)C2.Cl (centres undefined) [Rimantadine Hydrochloride]	0.941
O=CC(O)C(O)C(O)CO (centres undefined) [Xylose]	0.777
